Laboratory results reported in PubChem BioAssay AID743279 (National Center for Advancing Translational Sciences (NCATS), 2014).
Screen size: about 360,000 compounds; about 17,000 (4.7%) were called active. Inconclusive means that the source gave no clear call. Such entries were picked first, then a sample of the others. Rule as the data show it: active = activity change below about -50%; inconclusive = mostly about -30% to -49%; inactive = weaker than that.

experiment: qHTS for Inhibitors of Inflammasome Signaling: IL-1-beta AlphaLISA Primary Screen; details: THP-1 LPS/ATP IL-1B secretion, 16 h; at 57.5 µM, stronger effect = lower value
Summary of the method: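 Secreted IL-1B measured by AlphaLISA bead assay after 16 h compound exposure of THP-1 cells; compounds (final up to 57.5 uM) added 1 h before LPS (250 ng/mL) and ATP (1.25 mM) stimulation; lower signal means less secretion.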
% is scaled to controls: 0 for no effect and ±100 for the full control effect.

Activity change, active:
FC(F)(F)c1cnc(N2CCN(C(=S)NCc3ccccc3)CC2)c(Cl)c1 -93.4%
CCOC(=O)C1=C(NC(=S)NC(=O)c2ccccc2)c2ccccc2CC1(C)CC (configuration not stated) -56.3%
O=C(COc1ccccc1)NCC(=O)N/N=C/c1cc(Br)ccc1OCc1ccccc1 -52.6%
Cc1ccc(S(=O)(=O)N2CCCCC2)cc1NC(=O)Cn1ncc(Cl)c(Cl)c1=O -102%
C=C1CC2(OC1=O)c1ccccc1CCc1ccccc12 -102%
O=C(NCCc1ccccc1)C1CCN(Cc2cccc3ccccc23)CC1 -51.1%
Cc1cccn2cc(-c3cccc(NC(=O)c4cccs4)c3)nc12 -83%
N#C/C(=C\c1ccc(N2CCOCC2)c([N+](=O)[O-])c1)c1nc2ccccc2[nH]1 -104%
Cc1c(NC(=O)COC(=O)c2cc3c4ccccc4n(C)c3s2)c(=O)n(-c2ccccc2)n1C -55%
CCN(c1ccccc1)S(=O)(=O)c1cc(C(=O)NCC(c2ccco2)N2CCCCC2)ccc1C (configuration not stated) -79.4%

Activity change, inconclusive:
Cc1ccc(C(=O)Nc2ccc(Br)c(C(F)(F)F)c2)cc1 -35.5%
Cc1ccc(CN2CCN(CC(=O)N/N=C/c3ccccc3F)CC2)cc1 -33.9%
O=C(Oc1ccc2c(=O)c(Oc3ccc4ccccc4c3)coc2c1)c1ccco1 -34.7%
COc1ccc(NC(=O)CSC2=NCCN2)cc1 -44.1%
COc1cc(/C(O)=C(\C#N)c2nc3ccccc3[nH]2)cc(OC)c1OC -35.5%
OCC1OC(n2cnc3c(NCc4ccco4)ncnc32)C(O)C1O (configuration not stated) -38.3%
CCn1c(SCc2ccccc2)nc2c(c1=O)SCC2 -39.2%
CN1CCc2c(n(CC(O)CNCc3ccccc3)c3ccccc23)C1=O (configuration not stated) -37.6%
S=C(NCCc1ccccc1)NCC(c1ccco1)N1CCCCC1 (configuration not stated) -30.6%
NNC(=O)c1cccc(COc2ccccc2Br)c1 -31.7%
Cc1ccc(NC(=S)NC(=O)c2ccc(F)cc2)cc1S(=O)(=O)Nc1cccc(Cl)c1 -49.1%
CCOC(=O)C1(CCOc2ccccc2)CCN(Cc2cnc(SC)nc2)CC1 -37.8%
CCN(CC)CCOc1ccc(/C(=C(/Cl)c2ccccc2)c2ccccc2)cc1 -31.5%
Cc1cccc(Oc2cc(NC(=O)Cn3cnc([N+](=O)[O-])n3)cc([N+](=O)[O-])c2)c1 -36.9%
C/C(=N\OC(=O)NC1CCCCC1)c1sc(-c2ccccc2)nc1C -32.8%
N#Cc1nc(-c2ccccc2F)oc1N1CCN(C(=O)c2ccco2)CC1 -32.1%
CC(C)Cc1nc2n[nH]c(N)c2c2c1CCCC2 -48.9%
O=C(Cc1ccc(Cl)cc1)Nc1cc(Cl)ccn1 -40.2%
CC1CCCC(C)N1CCCNC(=O)c1nn(C)c2c1CSc1ccccc1-2 (configuration not stated) -41.1%
Cc1cccc(Cn2c(SCC(=O)Nc3ccccc3)nc3c2c(=O)[nH]c(=O)n3C)c1 -32%
COc1ccc(/C=C(\C)C(=O)c2c(C)cc(C)[nH]c2=O)cc1 -37.9%
CCC(C)NC(=O)c1ccc(COc2ccccc2Cl)cc1 (configuration not stated) -35.7%
Nc1nc(SCc2ccccc2)[nH]c(=O)c1-c1ccccc1 -33.5%
COc1ccc(/C=N/NC(=O)c2ccn[nH]2)cc1COc1ccc([N+](=O)[O-])c(C)c1 -36.2%
COc1ccc2oc(C(=O)OCC(=O)N(Cc3ccccc3)C(C)C)c(C)c2c1 -36.2%
CCOC(=O)COc1ccc(C(=O)Nc2cccc(Cl)c2C)cc1 -37.8%

Activity change, inactive:
COc1ccc(-c2noc(CN3CCCC(OCc4ccccn4)C3)n2)cc1 (configuration not stated) -0.0349%
CC1Cc2ccccc2N1C(=O)Cn1cnc2c1c(=O)n(C)c(=O)n2C (configuration not stated)
CC(C)N(Cc1ccccc1)S(=O)(=O)N(C)C 13.7%
CC(NC(=O)/C=C/c1ccco1)c1nc2ccccc2n1Cc1cccc(Cl)c1 (configuration not stated) -19.7%
CCOC(=O)c1c(S(=O)(=O)N2CCN(c3ccc(F)cc3)CC2)c(C)n(C)c1C 32.3%
O=C(C[C@@H]1CC[C@H](NC(=O)Nc2ccc(F)cc2)[C@@H](CO)O1)NCc1cccc(F)c1 17.4%
Cc1cccc(NC(=O)C2CCCN(S(=O)(=O)c3cccc4nsnc34)C2)c1 (configuration not stated) 0%
COCc1nc2ccccc2n1CCOc1ccccc1OC 16.6%
O=C(Nc1ccc(F)cc1)C1CCC(CNc2c(N3CCCCC3)c(=O)c2=O)CC1 (configuration not stated) -21.3%
Cc1ccc(NC(=O)c2c(C)nc3sc(C(=O)NC4CCCC4)c(N)c3c2-c2ccco2)c(C)c1 19.4%
COC(=O)CCCC(=O)N1CCCC(N(C)CCc2ccccc2)C1 (configuration not stated) 7.1%
Cc1cc(C)c2cc(CN(Cc3ccco3)C(=S)NCC3CCCO3)c(=O)[nH]c2c1 (configuration not stated) 0%
CC(C)Cn1c(CCCNC(=O)c2ccc(F)cc2)nc2ccccc21 20.1%
CC(=O)N1N=C(c2ccncc2)OC12CCCC2 -8.84%
O=S(=O)(c1ccc(F)cc1)N1CCN(Cc2ccccn2)CC1 -13.1%
Cc1cccc(CSc2nc3nc(C)cc(C)n3n2)c1 0%
CC(NC(=O)CNC(=O)c1ccco1)c1ccccc1 (configuration not stated) 12.7%
COc1ccc(CC2(CO)COc3ccccc3C2=O)cc1 (configuration not stated) 24.5%
N#Cc1c(SCC(N)=O)nc2c(c1-c1ccc(O)cc1)CCCC2 36.5%
Fc1cccc(Cl)c1/C=N/n1c(-c2cccnc2)n[nH]c1=S 27.2%
CCc1ccc(CN(C)Cc2nc(-c3cccc(Cl)c3)no2)nc1 21%
